Experimental data reported in PubChem BioAssay AID686978 (National Center for Advancing Translational Sciences (NCATS), 2013).
Where “and” joins values, the source holds several entries; their conditions need not be identical. Equal entries are not always repeated. Out of some 420,000 compounds screened, about 64,000 (15%) were called active. Inconclusive results, whose numbers are uncertain, are shown with a selection of clear calls. Calls come from the whole dose curve; as a rule, active = well fitted inhibition curve with a large enough effect; inconclusive = small, poorly fitted or top-dose-only effect; inactive = flat fitted curve, though single readings scatter. Potencies of inconclusive entries are left out as doubtful fits.

Experiment: qHTS for Inhibitors of human tyrosyl-DNA phosphodiesterase 1 (TDP1): qHTS in cells in absence of CPT; note: nearly all actives have a fitted effect of over 55% in size
Settings: DT40 Tdp1-/- hTDP1 cells, no CPT, ATP luminescence, 48 h; activity change, negative = growth inhibition: at 46.2 µM (top of the series) unless noted
Outline: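 A cellular qHTS used chicken DT40 cells lacking endogenous Tdp1 but carrying stably transfected human TDP1. Compounds were applied without camptothecin, and cell growth kinetics were judged by ATP-dependent luminescence after ≥48 hr.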
% is set by controls: 0 for no effect and ±100 for the full control effect; potency is the fitted concentration of half-maximal effect; tags give direction and shape of the fitted curve.

Row | SMILES | Potency | activity change, negative = growth inhibition
1 | CCN(CC)S(=O)(=O)c1cc(NC(=O)C(C)N2CC=C(c3ccccc3)CC2)ccc1C (stereo not drawn) | active: 6.51 µM | –
2 | Oc1cc(O)c2c(c1)OC(c1cc(O)c(O)c(O)c1)C(O)C2 (stereo not drawn) | inconclusive [inhibitor, single point] | –
3 | CC1(C)CN=C(Nc2nc3ccccc3s2)S1 | inconclusive [inhibitor, partial curve, poor fit] | –
4 | O=C(Oc1ccccc1)N1CCC2(CCN(Cc3ccncc3)CC2)CC1 | inconclusive [inhibitor, single point] | –
5 | O=c1[nH]cnc2nc(-c3ccc(N(CCCl)CCCl)cc3)[nH]c12 | inconclusive [inhibitor, single point] | –
6 | O=C(c1cccs1)C1CN2CCC1CC2 (stereo not drawn) | inconclusive [inhibitor, single point] | –
7 | Cc1sc2c(c1C)C(c1cccs1)=NCC(=O)N2CC(=O)NCc1cccs1 | inconclusive [inhibitor, single point] | –
8 | N#CC(c1ccc(Cl)nn1)c1c(F)cccc1Cl (stereo not drawn) | inconclusive [inhibitor, partial curve, poor fit] | –
9 | C[C@]12CC[C@H]3[C@@H](CCC4=CC(=O)CC[C@@H]43)[C@@H]1CC[C@@H]2OC(=O)CCc1ccccc1 | – | inactive: -16.6%
10 | O=C(NCC1=C(c2cccc3ccccc23)C[C@@H]2CC[C@H]1N2Cc1ccco1)c1ccncc1 | active: 25.9 µM | –
11 | CC(C)c1ccc(NC(=O)C2CCN(S(=O)(=O)c3ccc(Br)s3)CC2)cc1 | inconclusive [inhibitor, single point] | –
12 | CSc1ncc(/C=C2/C(=O)NC(=O)N(c3ccc(C)cc3)C2=O)cn1 | – | inactive: -23.8%
13 | O=C1NCN(c2ccccc2)C12CCN(C(CCc1ccccc1)c1nnnn1Cc1ccccc1)CC2 (stereo not drawn) | inconclusive [inhibitor, single point] | –
14 | O=C(c1cc2c(s1)CCCCCC2)N1CCC2(CC1)OCCO2 | inconclusive [inhibitor, single point] | –
15 | Nc1ccc2cc(Br)ccc2c1 | – | inactive: -26%
16 | CCC1(CC)C(=O)NC(=NCCc2c[nH]c3ccccc23)NC1=O | – | inactive: 9.26%
17 | COc1ccc(SCC2CN(C)CCC2c2ccc(F)cc2)cc1 (stereo not drawn) | inconclusive [inhibitor, single point] | –
18 | CCCOP(=O)(OCCC)c1nc(-c2ccccc2)oc1NCc1ccccc1 | inconclusive [inhibitor, single point] | –
19 | Cc1ccccc1C(=O)N1Cc2cnnn2-c2ccccc2C1C#N (stereo not drawn) | – | inactive: -19.7%
20 | CN(C)c1ccc(/C=C2/C(=O)NC(=O)N(CCc3ccc(F)cc3)C2=O)cc1 | inconclusive [inhibitor, single point] | –
21 | COC(=O)C1=C(c2ccc(OC(F)(F)F)cc2)C[C@@H]2CC[C@H]1N2C(=O)NCCc1ccccc1 | inconclusive [inhibitor, single point] | –
22 | C[C@H]1COC(=O)[C@H](Cc2ccc(F)cc2)CC/C=C/C[C@@H](CC(=O)N(CCO)Cc2ccccc2)C(=O)N1 | active: 18.4 µM | –
23 | CCC(C)C1NC(=O)C(NC(=O)C(CC(C)C)N(C)C(=O)C2CCCN2C(=O)C(C)O)C(C)OC(=O)C(Cc2ccc(OC)cc2)N(C)C(=O)C2CCCN2C(=O)C(CC(C)C)NC(=O)[C@H](C)C(=O)[C@H](C(C)C)OC(=O)CC1O (stereo partly drawn) | active: 0.0291 µM | –
24 | Cc1ccc(NC2=NCCCS2)c(C)c1C | inconclusive [inhibitor, single point] | –
25 | CCCN(CCC)C(=O)Cc1c(-c2ccc(Cl)cc2)nc2ccc(Cl)cn12 | inconclusive [inhibitor, full curve, poor fit] | –

Row | SMILES | Potency | activity change, negative = growth inhibition
26 | COC(=O)Nc1nc2ccccc2[nH]1 | active: 5.8 µM | –
27 | CCc1ccc(NC(=O)CN2C(=O)C3(SCC(=O)N3c3ccc(F)c(F)c3)c3ccccc32)cc1 (stereo not drawn) | inconclusive [inhibitor, single point] | –
28 | c1ccc(CN2Cc3ccccc3-n3nncc3C2)nc1 | – | inactive: -20.5%
29 | Cc1c(C(=O)O)cccc1-n1c(C)cc(/C=C2\C(=O)NC(=O)N(c3ccc4c(c3)OCO4)C2=O)c1C | – | inactive: 0.106%
30 | Oc1ccccc1Cl | – | inactive: 4.3%
31 | CCN(CC)C(=O)c1ccc(NC(=O)c2cccc(S(=O)(=O)N3CCN(Cc4ccccc4)CC3)c2)cc1 | active: 13 µM | –
32 | NC(=O)c1ccc(OCCC(O)N2CC=C(c3ccc(F)cc3)CC2)cc1 (stereo not drawn) | inconclusive [inhibitor, single point] | –
33 | O=C(Cc1ccccc1)OCCN1CCCCC1 | – | inactive: -2.8%
34 | COc1ccc2[nH]cc(CCNCc3ccc(Br)cc3)c2c1 | active: 10.3 µM | –
35 | CN(C)C(=S)SC(=S)N(C)C | active: 0.841 µM | –
36 | CCOP(=O)(OCC)C(NC(=O)C(C)C)C(Cl)(Cl)Cl (stereo not drawn) | – | inactive: -5.61%
37 | O=C(C(=O)N1CCOCC1)c1cn(Cc2ccccc2F)c2ccccc12 | – | inactive: 0.858%
38 | CN1c2ccccc2C(NCCCCCCC(=O)O)c2ccc(Cl)cc2S1(=O)=O (stereo not drawn) | inconclusive [inhibitor, single point] | –
39 | Oc1ccc2c3c1OC1[C@H](O)CC[C@@]4(O)[C@@H](C2)N(CC2CC2)CC[C@]314 (stereo partly drawn) | inactive | –
40 | CCCCCn1c(=O)c(C(=O)Nc2ccccc2S(N)(=O)=O)c(O)c2ccccc21 | active: 4.61 µM | –
41 | CC(C)Oc1cc(-n2c(=S)[nH]c3ccccc3c2=O)c(Cl)cc1Cl | active: 16.4 µM | –
42 | CCN(CC)C(=O)Oc1ccc2cc(Br)ccc2c1 | inconclusive [inhibitor, single point] | –
43 | CCOC(=O)c1c(C)n(Cc2ccccc2)c2ccc(OCC(O)Cn3nc(C)cc3C)cc12 (stereo not drawn) | inconclusive [inhibitor, single point] | –
44 | Clc1ccc(CSC(Cn2ccnc2)c2ccc(Cl)cc2Cl)cc1 (stereo not drawn) | active: 7.18 µM and active: 20.6 µM and active: 18.4 µM | –
45 | CC(C)CCn1c(N)c(C(=O)NCc2cccs2)c2nc3ccccc3nc21 | inconclusive [inhibitor, single point] | –
46 | CCCNC(=O)C1(C)CCN(Cc2ccc3ccccc3c2Br)C1 (stereo not drawn) | inconclusive [inhibitor, single point] | –
47 | C=CCN1C(=O)/C(=C/c2cc(C)n(-c3cccnc3)c2C)C(=O)NC1=S | inconclusive [inhibitor, single point] | –
48 | O=C(NCCc1ccc(Cl)cc1)C(=O)NCC(c1cccs1)S(=O)(=O)c1cccs1 (stereo not drawn) | active: 13 µM | –
49 | CCOc1ccc(-c2nc(CSCC(=O)NCCc3ccc(OCC)c(OCC)c3)c(C)o2)cc1 | active: 16.4 µM | –
50 | C[C@H](CCC(=O)O)[C@H]1CC[C@H]2[C@H]3C(CC[C@]12C)[C@@]1(C)CC[C@@H](O)C[C@H]1C[C@H]3O (stereo partly drawn) | inactive | –

Row | SMILES | Potency | activity change, negative = growth inhibition
51 | C1CNC2NCCNC2N1 (stereo not drawn) | – | inactive: 7.89%
52 | CCOP(=O)(OCC)Oc1cc(C)c(N(C)C)c(C)c1 | inconclusive [inhibitor, single point] | –
53 | O=C(C1CCN(S(=O)(=O)c2ccc(Br)s2)CC1)N1CCN(c2cccc(C(F)(F)F)c2)CC1 | active: 6.51 µM | –
54 | Cc1cc(C)cc(OCC(=O)Nc2ccc(Cl)cc2C(=O)c2ccccc2)c1 | – | inactive: 0.366%
55 | Oc1c(Br)cc(Br)cc1Br | inactive | –
56 | O=C(NCC(c1cccs1)N1CCOCC1)c1cc([N+](=O)[O-])cc([N+](=O)[O-])c1 (stereo not drawn) | inconclusive [inhibitor, partial curve] | –
57 | CCCCCCC(=O)O[C@H]1CC[C@H]2[C@@H]3CC[C@H]4CC(=O)C=C(C)[C@]4(C)[C@H]3CC[C@]12C | inconclusive [inhibitor, single point] | –
58 | CCC(c1nnnn1-c1ccc2c(c1)OCCO2)N1CCC2(CC1)C(=O)NCN2c1ccccc1 (stereo not drawn) | active: 18.4 µM | –
59 | NCCc1cc(O)c(O)cc1O | active: 13 µM and active: 23.1 µM and active: 3.66 µM | –
60 | CC12CCC3C(CCC4(O)CC(O)CCC34C=O)C1(O)CCC2C1=CC(=O)OC1 (stereo not drawn) | active: 7.31 µM | –
61 | CNCc1ccccc1 | inconclusive [inhibitor, full curve] | –
62 | CCOP(=O)(OCC)c1nc(-c2cccc3ccccc23)oc1N1CCCCC1 | inconclusive [inhibitor, partial curve, poor fit] | –
63 | Cc1ccc(-c2nc3ccccc3c(=O)n2-c2nccs2)cc1 | – | inactive: -29.8%
64 | O=S(=O)(c1ccccc1)N1CN2CCN(C2)C1 | – | inactive: -20.3%
65 | CC(C)n1nnnc1CN1CCN(C)CC1 | – | inactive: -8.41%
66 | C#C[C@]1(O)CC[C@H]2[C@@H]3CCC4=Cc5nc6nc7ccccc7n6cc5C[C@]4(C)[C@H]3CC[C@@]21C | active: 11.6 µM | –
67 | Cc1sc(-n2c(C)cc(C=C3C(=O)NC(=O)NC3=O)c2C)c(C#N)c1C | inconclusive [inhibitor, single point] | –
68 | Cc1ccc(N/N=C/C=C/c2ccco2)cc1 | inconclusive [inhibitor, single point] | –
69 | CCC(=NCc1ccc(F)cc1)c1c(O)n(C)c(=O)n(C)c1=O | active: 18.4 µM | –
70 | COCCNC(=O)Cn1cc(/C=C2\C(=O)NC(=O)N(c3ccccc3F)C2=O)c2ccccc21 | – | inactive: -2.46%
71 | COc1ccc(OCC(=O)N2CCN(Cc3nc4cc([N+](=O)[O-])ccc4n3C)CC2)cc1 | inconclusive [inhibitor, single point] | –
72 | COC(=O)C1=C(c2ccccc2)C[C@@H]2CC[C@H]1N2C(=O)N1CCOCC1 | inconclusive [inhibitor, single point] | –
73 | COc1ccc(CCNC(=O)N2c3ccccc3Sc3ccccc32)cc1 | inconclusive [inhibitor, single point] | –
